{"source": "the supplement of paper PMC8728848", "binders": {"B1": {"name": "GS7807P-bth-537-23-537 (Bacteroides thetaiotaomicron) (protein)", "chain": "NYENINSNPYEAPDLSADGYALGSAMNNLAGCVVSPDVNTAQFTDCLLGGPLGGYFADSNAGFTETISNFNPKDDWSRVFLKSDKIIPTLYSNLTQVKLVSQNTNDPVPYAIAQVIKVAAMHRVTDAFGPIPYSQIGANGEIATPYDSQEVTYNTFFDELNAAIATLNENSNEQLVPTADYIYKGDVKKWIRFANSLKLRLAIRIAYANPVKAQQMAEEAVNPANGGVIESNADNATWNYFETSQNPIYVATRYNQVQTSDHGGVPCLTGGDTHAAADIICYMNGYKDNRREKFFTKSEWAGQDYVGMRRGIVIPELKTTGHKYSGVNIAPTSPLYWMNAAEVAFLRAEGQAVFNFSMGGTAESFYNQGIRLSFEQWGADGVEDYLKDDVNKPTAYTDPAGTNTYQNALSNITIKWNDSADKEEKQERIIVQKWIANWQLGNEAWADFRRTGYPKLIPVKENKSGGVVDSEKGARRMPYPLDEFVSNKANVEYAIANYLHGADNMATDVWWASKK"}}, "assay_in_all_cases": "glycan array binding signal (z-score within array); higher = stronger binding", "conditions_in_all_cases": "glycan notation: IUPAC condensed, linker removed", "key": {"[1]": {"molecular_target": "GlcNAc(b1-4)GlcNAc(b1-4)GlcNAc(b1-4)GlcNAc(b1-4)GlcNAc(b1-4)GlcNAc", "in_short": "(§1)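 Arrays were curated from the Consortium for Functional Glycomics database, 3228 in total, and kept only where the protein sequence was available. Binding is expressed as a within-array Z-score. This score was averaged across arrays of the same protein sequence at different concentrations or buffers and across linkers, and negative values can be read as non-binding.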"}, "[2]": {"molecular_target": "GlcNAc(b1-4)[GlcNAc(b1-6)]GalNAc", "in_short": "as §1"}, "[3]": {"molecular_target": "GlcNAc(b1-6)Gal(b1-4)GlcNAc", "in_short": "as §1"}, "GlcNAc(b1-6)GalNAc": {"molecular_target": "GlcNAc(b1-6)GalNAc", "in_short": "as §1"}, "[4]": {"molecular_target": "GlcNAc6S(b1-3)Gal(b1-4)GlcNAc", "in_short": "as §1"}, "Kdn(a2-3)Gal(b1-3)GalNAc": {"molecular_target": "Kdn(a2-3)Gal(b1-3)GalNAc", "in_short": "as §1"}, "Kdn(a2-3)Gal(b1-3)GlcNAc": {"molecular_target": "Kdn(a2-3)Gal(b1-3)GlcNAc", "in_short": "as §1"}, "Kdn(a2-3)Gal(b1-4)Glc": {"molecular_target": "Kdn(a2-3)Gal(b1-4)Glc", "in_short": "as §1"}, "Kdn(a2-3)Gal(b1-4)GlcNAc": {"molecular_target": "Kdn(a2-3)Gal(b1-4)GlcNAc", "in_short": "as §1"}, "[5]": {"molecular_target": "Kdn(a2-3)Gal(b1-4)[Fuc(a1-3)]GlcNAc", "in_short": "as §1"}, "Kdn(a2-6)Gal(b1-4)GlcNAc": {"molecular_target": "Kdn(a2-6)Gal(b1-4)GlcNAc", "in_short": "as §1"}, "[6]": {"molecular_target": "Man(a1-2)Man(a1-2)Man(a1-3)Man", "in_short": "as §1"}, "[7]": {"molecular_target": "Man(a1-2)Man(a1-2)Man(a1-6)[Man(a1-3)]Man", "in_short": "as §1"}, "Man(a1-2)Man(a1-3)Man": {"molecular_target": "Man(a1-2)Man(a1-3)Man", "in_short": "as §1"}, "[8]": {"molecular_target": "Man(a1-2)Man(a1-3)[Man(a1-2)Man(a1-6)]Man", "in_short": "as §1"}, "[9]": {"molecular_target": "Man(a1-2)Man(a1-3)[Man(a1-2)Man(a1-6)]Man(a1-6)[Man(a1-2)Man(a1-2)Man(a1-3)]Man", "in_short": "as §1"}, "[10]": {"molecular_target": "Man(a1-2)Man(a1-3)[Man(a1-2)Man(a1-6)]Man(a1-6)[Man(a1-2)Man(a1-2)Man(a1-3)]Man(b1-4)GlcNAc(b1-4)GlcNAc", "in_short": "as §1"}, "[11]": {"molecular_target": "Man(a1-2)Man(a1-3)[Man(a1-6)]Man(a1-6)[Man(a1-2)Man(a1-3)]Man(b1-4)GlcNAc(b1-4)GlcNAc", "in_short": "as §1"}, "[12]": {"molecular_target": "Man(a1-2)Man(a1-6)[Man(a1-3)]Man(a1-6)[Man(a1-2)Man(a1-2)Man(a1-3)]Man", "in_short": "as §1"}, "[13]": {"molecular_target": "Man(a1-2)Man(a1-6)[Man(a1-3)]Man(a1-6)[Man(a1-2)Man(a1-2)Man(a1-3)]Man(b1-4)GlcNAc(b1-4)GlcNAc", "in_short": "as §1"}, "Man(a1-3)[Man(a1-6)]Man": {"molecular_target": "Man(a1-3)[Man(a1-6)]Man", "in_short": "as §1"}, "[14]": {"molecular_target": "Man(a1-3)[Man(a1-6)]Man(a1-6)[Man(a1-2)Man(a1-3)]Man(b1-4)GlcNAc(b1-4)GlcNAc", "in_short": "as §1"}, "[15]": {"molecular_target": "Man(a1-3)[Man(a1-6)]Man(a1-6)[Man(a1-3)]Man", "in_short": "as §1"}, "[16]": {"molecular_target": "Man(a1-3)[Man(a1-6)]Man(a1-6)[Man(a1-3)]Man(b1-4)GlcNAc(b1-4)GlcNAc", "in_short": "as §1"}, "[17]": {"molecular_target": "Man(a1-3)[Man(a1-6)]Man(b1-4)GlcNAc(b1-4)GlcNAc", "in_short": "as §1"}, "[18]": {"molecular_target": "Man(a1-3)[Man(a1-6)]Man(b1-4)GlcNAc(b1-4)[Fuc(a1-6)]GlcNAc", "in_short": "as §1"}, "Man(a1-6)Man": {"molecular_target": "Man(a1-6)Man", "in_short": "as §1"}, "Man(b1-4)GlcNAc": {"molecular_target": "Man(b1-4)GlcNAc", "in_short": "as §1"}, "MurNAc(b1-4)GlcNAc": {"molecular_target": "MurNAc(b1-4)GlcNAc", "in_short": "as §1"}, "Neu5Ac(a2-3)Gal": {"molecular_target": "Neu5Ac(a2-3)Gal", "in_short": "as §1"}, "[19]": {"molecular_target": "Neu5Ac(a2-3)Gal(b1-3)GalNAc", "in_short": "as §1"}, "[20]": {"molecular_target": "Neu5Ac(a2-3)Gal(b1-3)GalNAc(b1-3)Gal(a1-4)Gal(b1-4)Glc", "in_short": "as §1"}, "[21]": {"molecular_target": "Neu5Ac(a2-3)Gal(b1-3)GalNAc(b1-4)[Neu5Ac(a2-3)]Gal(b1-4)Glc", "in_short": "as §1"}, "[22]": {"molecular_target": "Neu5Ac(a2-3)Gal(b1-3)GalNAc(b1-4)[Neu5Ac(a2-8)Neu5Ac(a2-3)]Gal(b1-4)Glc", "in_short": "as §1"}, "[23]": {"molecular_target": "Neu5Ac(a2-3)Gal(b1-3)GalNAc6S", "in_short": "as §1"}, "[24]": {"molecular_target": "Neu5Ac(a2-3)Gal(b1-3)GlcNAc", "in_short": "as §1"}, "[25]": {"molecular_target": "Neu5Ac(a2-3)Gal(b1-3)GlcNAc(b1-2)Man", "in_short": "as §1"}}, "note": "This is one part of the list.", "data": [{"binder": "B1", "values": [{"measurement": "glycan array binding signal (z-score)", "setting": "[1]", "result": -0.364}, {"measurement": "glycan array binding signal (z-score)", "setting": "[2]", "result": -0.32}, {"measurement": "glycan array binding signal (z-score)", "setting": "[3]", "result": 0.132}, {"measurement": "glycan array binding signal (z-score)", "setting": "GlcNAc(b1-6)GalNAc", "result": 0.055}, {"measurement": "glycan array binding signal (z-score)", "setting": "[4]", "result": 1.22}, {"measurement": "glycan array binding signal (z-score)", "setting": "Kdn(a2-3)Gal(b1-3)GalNAc", "result": 0.603}, {"measurement": "glycan array binding signal (z-score)", "setting": "Kdn(a2-3)Gal(b1-3)GlcNAc", "result": 1.96}, {"measurement": "glycan array binding signal (z-score)", "setting": "Kdn(a2-3)Gal(b1-4)Glc", "result": 0.899}, {"measurement": "glycan array binding signal (z-score)", "setting": "Kdn(a2-3)Gal(b1-4)GlcNAc", "result": 0.259}, {"measurement": "glycan array binding signal (z-score)", "setting": "[5]", "result": 0}, {"measurement": "glycan array binding signal (z-score)", "setting": "Kdn(a2-6)Gal(b1-4)GlcNAc", "result": -0.238}, {"measurement": "glycan array binding signal (z-score)", "setting": "[6]", "result": -0.398}, {"measurement": "glycan array binding signal (z-score)", "setting": "[7]", "result": -0.343}, {"measurement": "glycan array binding signal (z-score)", "setting": "Man(a1-2)Man(a1-3)Man", "result": -0.348}, {"measurement": "glycan array binding signal (z-score)", "setting": "[8]", "result": -0.381}, {"measurement": "glycan array binding signal (z-score)", "setting": "[9]", "result": -0.267}, {"measurement": "glycan array binding signal (z-score)", "setting": "[10]", "result": -0.296}, {"measurement": "glycan array binding signal (z-score)", "setting": "[11]", "result": -0.372}, {"measurement": "glycan array binding signal (z-score)", "setting": "[12]", "result": -0.35}, {"measurement": "glycan array binding signal (z-score)", "setting": "[13]", "result": -0.293}, {"measurement": "glycan array binding signal (z-score)", "setting": "Man(a1-3)[Man(a1-6)]Man", "result": -0.357}, {"measurement": "glycan array binding signal (z-score)", "setting": "[14]", "result": 2}, {"measurement": "glycan array binding signal (z-score)", "setting": "[15]", "result": -0.37}, {"measurement": "glycan array binding signal (z-score)", "setting": "[16]", "result": -0.052}, {"measurement": "glycan array binding signal (z-score)", "setting": "[17]", "result": -0.365}, {"measurement": "glycan array binding signal (z-score)", "setting": "[18]", "result": 0.048}, {"measurement": "glycan array binding signal (z-score)", "setting": "Man(a1-6)Man", "result": -0.366}, {"measurement": "glycan array binding signal (z-score)", "setting": "Man(b1-4)GlcNAc", "result": -0.38}, {"measurement": "glycan array binding signal (z-score)", "setting": "MurNAc(b1-4)GlcNAc", "result": -0.409}, {"measurement": "glycan array binding signal (z-score)", "setting": "Neu5Ac(a2-3)Gal", "result": -0.341}, {"measurement": "glycan array binding signal (z-score)", "setting": "[19]", "result": -0.218}, {"measurement": "glycan array binding signal (z-score)", "setting": "[20]", "result": -0.339}, {"measurement": "glycan array binding signal (z-score)", "setting": "[21]", "result": -0.361}, {"measurement": "glycan array binding signal (z-score)", "setting": "[22]", "result": -0.381}, {"measurement": "glycan array binding signal (z-score)", "setting": "[23]", "result": -0.401}, {"measurement": "glycan array binding signal (z-score)", "setting": "[24]", "result": -0.36}, {"measurement": "glycan array binding signal (z-score)", "setting": "[25]", "result": -0.048}]}]}
